This passage reports self-cleavage results from the RNAGym collection of RNA variant scans (doi:10.7554/elife.90254).

B1: LINE1-full (parent)
chain: UACGUAGGUGGUUUUCCCCUGAUAGUGCUAAGGGGGCCUGGAAGUUUGGACUGGGCAGAGCUCAACACAGCGUGGCAAAGUGGCUGUGGCUAGACUGCCUCUCUGGAUUCCUCGUCACUCAGCAGGGCAUCUCUGAGAGAAAUGCC

Read counts are not given, so values of variants with three or more changes are uncertain.

In the data set the parent is B1. The data set can be described thus: self-cleavage, relative activity (ratio to wild type); higher = more cleavage; in vitro, sequencing; the parent is a self-cleaving ribozyme.
Consider G27A C37A U134C, for which the self-cleavage turned out to be 1.19. The value for C101U U109A U130C was 1.87; that for A2G U13C U39A U109C U115C was 0.48. The value for U1C U46C C51U G89A A107U was 0.03. U73C A77U G122A: the self-cleavage stood at 1.79. With A31U G36C U73A A121U, the self-cleavage came to 1.1.

For the variant A30U A31G U45C, the self-cleavage stood at 0. Regarding U9A A43G A64G U115C A142G, the self-cleavage worked out at 0. In the case of U45C U73A C110U A117G U130C A141G, the self-cleavage stood at 1.93. Take G33A A78U U81C: the self-cleavage turned out to be 1.49. As for U13A A79U U96G A140G, the self-cleavage came out at 0.05. For the variant U15C U96C C103A, the self-cleavage stood at 0.25. As for U12G C19U U73C, the self-cleavage was 1.08. Regarding C19U A64G U96C, the self-cleavage turned out to be 0.

Turning to A64U A77G A124U C146U, the self-cleavage was found to be 0.64. As for U20C G35A U45C U87C, the self-cleavage was 0.19. Take A69U U102C A129G: the self-cleavage was found to be 0.

Turning to U9C G27U U29C U132C, the self-cleavage was determined as 1.53. On to C19U G106U A129U, for which the self-cleavage turned out to be 1.21. The value for A30U U47C A57U C84U U130C was 0.13. U29C U45C G54A U85A: the self-cleavage came to 0.08. As for U12C G89A U102A, the self-cleavage came to 0.08. The value for U9C A124G A142G was 1.31; that for A43G U62C A65G was 0.22; that for G4C A124U U134A was 0.92. For the variant U13C U91A U102C, the self-cleavage was 0.35.

For U46C U73C A78U U100A A117C, the self-cleavage came out at 1.84. For U12C U26C U85A the value was 0.43.

On to A50G U100C U134A A141G, for which the self-cleavage was 1.99. For the variant A2G U46A U47G A129U, the self-cleavage stood at 0.8.

As to U26C G34U A64U, the self-cleavage turned out to be 0.45. With U1A A31C A59G A77G, the self-cleavage came out at 0.68. Turning to A69U C133U A138G, the self-cleavage is 0.05. On to C71A A124G A136G, for which the self-cleavage worked out at 0.23. The value for A57U A59G G106U A117U A142U was 0.08; that for A6U U73C A121G was 0.

In the case of U81C U115A A129G, the self-cleavage stood at 2.44. With U46C A94U A121G A138U, the self-cleavage stood at 0.54. On to U13A U52C A129G, for which the self-cleavage was 1.45. Consider U73C A79G A141G, for which the self-cleavage was 1.67. With C51U U112C A129G, the self-cleavage amounted to 1.72.

In the case of U13C U85C A140G, the self-cleavage came to 0.09.

Regarding U112C A129G A140G, the self-cleavage came to 0.27.

With U46C A64G U87A A117G G135A A140G, the self-cleavage was found to be 0.18. On to G35A A121C A140G, for which the self-cleavage is 1.37. On to A22G U29C A65C G106U A142G, for which the self-cleavage came out at 0.07. As for A69G U81G U115C, the self-cleavage stood at 0. A6G U45A U46A G55A A69G: the self-cleavage is 0.25.

Regarding A50G A64U A124G U134A, the self-cleavage stood at 0.1. The value for U62C A64U A138G was 0.04; that for U20A A43G U130A U132C was 1.62; that for U46C U73A G125U was 1.62. In the case of U26A U85A A107G, the self-cleavage worked out at 0.13. For the variant U12G A43G U46C A59G, the self-cleavage is 0. A2U U130C A140G: the self-cleavage is 0.88. The value for U23C U29C A59G was 0; that for A92G A117U A140G was 0.1. For the variant C68U A69G G74A, the self-cleavage came out at 0.13. As for A22G A43G A124G A136U, the self-cleavage amounted to 1.07. On to G48U U85C U100C, for which the self-cleavage came out at 0.42. For A65C A67C U115A, the self-cleavage stood at 0. Regarding A31U A64U A117G U132C A141G, the self-cleavage was determined as 1.21. For U39C U47C A64G U130A A140G the value was 0; for U15C G35A G55A A59G U112C A124G, 0.07; for U26A U96C A138G, 0.28. As for U9A A42G A65U A79C U115C, the self-cleavage turned out to be 0. For A2G A65U U81A G106C, the self-cleavage is 0.06. For G7A A43U U46C the value was 0.69; for U20A A43U A77G, 0.95; for U26C A43G A57G A138G, 0. As for U23C U62C A65G U100A U130C, the self-cleavage turned out to be 0.61.

With G10A U14C C18U, the self-cleavage worked out at 0.7.

Consider A64U A67G A136G, for which the self-cleavage worked out at 0.11. On to U1G U14C U46C A78G, for which the self-cleavage came out at 0.56. As to U85C A141G A142G, the self-cleavage was found to be 0. As to A69U C118U A141G, the self-cleavage was determined as 0.03. Take A2U U46C A65U G72A A140G: the self-cleavage turned out to be 0. Take U15C U23A A31G U73G U104C: the self-cleavage is 0.35.

For U9C U52C U62C, the self-cleavage is 0.

As for A6U U46C U52A A59G A140G, the self-cleavage was 0.33. The value for A69G U119C A138U A140G was 2.04; that for U85C C128U U132A was 0.12; that for A59G U73A U115C was 0.14. Turning to U26A U109A U132C A142G, the self-cleavage worked out at 1.53. The value for U14C U39C A42G was 1.25; that for A6G G114A A124G was 0.78; that for A42G A67G C99A U115C was 0.

U1A U12A A65G C90U: the self-cleavage came out at 0.22. For the variant U12C A22C U115C U143C, the self-cleavage is 2.51.

Regarding U5C U20C U46A A138G, the self-cleavage turned out to be 1.35. In the case of U13G A129G U130C, the self-cleavage was determined as 1.23. As to G33A A94G C103A, the self-cleavage was determined as 0.32.

Turning to U13A A57U U96C, the self-cleavage is 0.04. For the variant U12G U47A A67G A121U, the self-cleavage worked out at 0. Take U12C U13C A138G: the self-cleavage was found to be 1.15. For the variant C37U U47A U109C U115C U130C, the self-cleavage is 1.97. Take C38A U73A A79G A142G: the self-cleavage turned out to be 1.07. Turning to G36A G55A U62C A67G A92U U108C C131U, the self-cleavage is 0.05. For the variant G4A U85C G89U, the self-cleavage stood at 0.09. As to G72A A94G U104A, the self-cleavage was 0.12. Take U73A A117G A138G: the self-cleavage is 1.45.

As to U13C U47A A59U A69U, the self-cleavage was 0.21.

As for C90U U132C C146U, the self-cleavage amounted to 0. The value for U15A U47G C63A was 0.11. Regarding U29C U91C A142G, the self-cleavage was found to be 0.56.

A42U A69U A92U U115C: the self-cleavage was determined as 0.02. In the case of C16U U85C U102C U104A U119C, the self-cleavage worked out at 0. In the case of G25A U87A U119C U130C, the self-cleavage came to 0.02. On to U1A U39C A117G A124U, for which the self-cleavage turned out to be 1.67. On to U45C C71A U73C A79G, for which the self-cleavage was 0.47. For U15A G44A A59G A142G, the self-cleavage came out at 0.07. G33A A50U U73A A79G A117G U130C A136G: the self-cleavage was found to be 0.53. For G127U U132C A138G the value was 0.32. For U46C U85C U134G, the self-cleavage was 0.26. For U20A U26G A138G, the self-cleavage stood at 1.8. With U39C A94G A136G A138G A141G, the self-cleavage worked out at 0. As to U13C U96A U134C A142G, the self-cleavage was determined as 0.

Consider U100C U134A A142G, for which the self-cleavage came out at 1.33. Consider U100C A138G A140U, for which the self-cleavage amounted to 2.04. As to U13C U45C U62A, the self-cleavage was found to be 0.05. As for U15G A31G A141G, the self-cleavage stood at 2.3. Take U12A A107G U109A: the self-cleavage is 2.32. The value for G49A U81C C145A was 0.98; that for U47A U52G A59G was 0.08; that for G41U G97A U132C was 0.03. As to C28U G32A U47C, the self-cleavage was found to be 0.69. Turning to U1C C103A U104A, the self-cleavage was 0.92. The value for U1C A57G A64U A138G was 0.13. With U73A U100C U130A, the self-cleavage was determined as 2.11.

As to A24G G32C G53A A94G C111U U119A A142G, the self-cleavage is 0.3. The value for U13C U26C A30U was 1.02; that for U9C U46C A59G A64U U85A A92G was 0.29.

As to A2U G60U U109C A124G A129U A142G, the self-cleavage was found to be 0.04. Regarding U52C U96C U109C A142G, the self-cleavage turned out to be 0. With U73C U85A C101A, the self-cleavage came out at 0.2. Regarding G4A A22G A124G A141G, the self-cleavage was 0.99. For U12C U91C A92G A138G the value was 0.24.

Regarding U13C C38U G49U U91C U112C, the self-cleavage was 0.22. Turning to U1C U15C U26C, the self-cleavage turned out to be 0.88.

In the case of A22G U52C A92C, the self-cleavage stood at 0. As for A6G U46A U52C, the self-cleavage was 0.41.

Consider A59G G75A A140G, for which the self-cleavage was found to be 0.04. Turning to A50G U81C U96C U104A A141G, the self-cleavage was 0.

For the variant U29C A69U U73C U102A, the self-cleavage came out at 0.34. In the case of G33U U52C A142G, the self-cleavage was determined as 1.11.

Regarding U15C C28A U52G, the self-cleavage is 0.75.

Take U26A A50U C51A U91C: the self-cleavage worked out at 0.47.

With U20G G36U A124G A140U, the self-cleavage was 1.06. For the variant U26A U109A U115C, the self-cleavage stood at 1.24. Consider U9G A22G U134C, for which the self-cleavage was determined as 2.07. For U14C A59U U104A U119C the value was 0.3; for A24U U45G A59G U87A, 0; for G10A U47C U73A, 0.91. For G49U A67U A141G A142G, the self-cleavage turned out to be 0.05. Take A43G A50G A141G: the self-cleavage was 0.97. For A50G U52A A64C, the self-cleavage was found to be 0.51. Take U1C U9A U100C: the self-cleavage was determined as 0.69. The value for U14A A59G A77U was 0.09; that for U5C C118U U134C was 1.22. As for A2G U13C U26C A30G U45C U62A C123A, the self-cleavage is 0. For U15C A50G A129G, the self-cleavage was determined as 0.61. For U26C G34U U62C A136U the value was 0.07. As for U5A A94G U115C, the self-cleavage was 0.4. For A6C U12C A42U, the self-cleavage turned out to be 0.32.

As for U13A G35A A140G, the self-cleavage was found to be 0.71. As to U26G A67U G114C, the self-cleavage is 0.2. Consider A42G U52A U96C A140U U143A, for which the self-cleavage came out at 0.26.
